# Source: the supplement of paper PMC8813932
# Where a name gives a salt, the structure may show the parent alone. ± gives the standard deviation of the averaged measurements. This is one part of the list. Repeats are few or missing, and single values can be far off.
# Key:
# Assay in all cases: log2 surviving fraction relative to plate median (drug vs vehicle, or drug+dl922-947 vs dl922-947 alone); ovarian cancer lines: OVCAR4 is platinum-sensitive while Ov4Cis resists cisplatin and Ov4Carbo carboplatin; higher = more cell survival
# Details in all cases: compound concentration: 10 uM, 192 h
# OVCAR4 = test system: OVCAR4
# Ov4Carbo = test system: Ov4Carbo
# Ov4Cis = test system: Ov4Cis
# [1] = dl922-947 oncolytic adenovirus co-treatment: MOI 10
# [2] = dl922-947 oncolytic adenovirus co-treatment: none
Compound,log2 surviving fraction (OVCAR4; [1]),log2 surviving fraction (OVCAR4; [2]),log2 surviving fraction (Ov4Carbo; [1]),log2 surviving fraction (Ov4Carbo; [2]),log2 surviving fraction (Ov4Cis; [1]),log2 surviving fraction (Ov4Cis; [2])
CN1CCC(OC(c2ccccc2)c2ccccc2)CC1 [Diphenylpyraline HCl],-0.776 ± 0.21,0.143 ± 0.044,-0.513,-0.293,0.371,0.442
CC(C)(C)CC(C)(C)c1ccc(O)c(Cc2ccc(Cl)cc2Cl)c1 [Clofoctol],0.542 ± 0.1,-0.707 ± 1.5,0.258,0.283,-1.95,-1.74
CC(C)c1nc(N(C)S(C)(=O)=O)nc(-c2ccc(F)cc2)c1/C=C/[C@@H](O)C[C@@H](O)CC(=O)O [Rosuvastatin calcium (Crestor)],-0.8 ± 0.25,-0.567 ± 0.31,0.313,0.0538,-0.386,-0.466
N[C@@H]1CONC1=O [D-Cycloserine],0.731 ± 0.41,0.246 ± 0.5,0.266,-0.076,0.989,0.254
CCc1c2c(nc3ccc(OC(=O)N4CCC(N5CCCCC5)CC4)cc13)-c1cc3c(c(=O)n1C2)COC(=O)[C@]3(O)CC [Irinotecan],-4.63 ± 0.78,-4.19 ± 2.4,-6.53,-9.59,-7.54,-7.97
CCCCC1=NC2(CCCC2)C(=O)N1Cc1ccc(-c2ccccc2-c2nnn[nH]2)cc1 [Irbesartan (Avapro)],0.352 ± 0.47,0.338 ± 0.31,0.708,0.11,0.548,0.346
CCOc1ccc2nc(S(N)(=O)=O)sc2c1 [Ethoxzolamide],0.379 ± 0.34,-0.198 ± 0.31,1.56,0.998,0.438,0.114
CC(C)(CO)[C@@H](O)C(=O)NCCC(=O)O [Pantothenic acid (pantothenate)],-0.658 ± 0.16,-0.126 ± 0.25,0.0285,1.79,-0.741,-0.366
Cc1cn(-c2cc(NC(=O)c3ccc(C)c(Nc4nccc(-c5cccnc5)n4)c3)cc(C(F)(F)F)c2)cn1 [Nilotinib (AMN-107)],1.78 ± 0.027,1.12 ± 0.025,0.851,2.7,0.973,1.58
CC(=O)OCC(=O)NCCCOc1cccc(CN2CCCCC2)c1 [Roxatidine acetate HCl],-0.265 ± 2.1,-0.3395 ± 0.003,0.73,1.42,-0.205,0.0273
CO/N=C(\C(=O)N[C@@H]1C(=O)N2C(C(=O)O)=C(Cn3ccc(=N)n3CCO)CS[C@H]12)c1csc(N)n1 [Cefoselis sulfate],-0.379 ± 0.25,-0.0936 ± 0.32,0.367,0.0679,-0.073,-0.0678
CC(C)c1c(C(=O)Nc2ccccc2)c(-c2ccccc2)c(-c2ccc(F)cc2)n1CC[C@@H](O)C[C@@H](O)CC(=O)O [Atorvastatin calcium (Lipitor)],0.11 ± 0.022,-2.24 ± 0.58,-1.89,-3.24,-0.544,-1.42
Nc1cc(N2CCCCC2)nc(N)[n+]1[O-] [Minoxidil],-0.216 ± 1,0.32 ± 0.27,-0.301,1.13,-0.286,-0.158
CCCC(=O)[O-].[Na+] [Sodium butyrate],-0.0391 ± 0.65,0.294 ± 0.23,0.706,-0.349,0.0955,-0.298
CN1[C@@H]2CC[C@H]1C[C@@H](OC(c1ccccc1)c1ccccc1)C2 [Benztropine mesylate],-3.21 ± 0.18,-1.91 ± 1.5,-2.77,-0.835,-4.64,-4.53
CC1=C(/C=C/C(C)=C/C=C/C(C)=C/C(=O)O)C(C)(C)CCC1 [Tretinoin (Aberela)],0.239 ± 0.74,-0.0516 ± 0.78,0.696,-0.701,0.224,0.1
O=c1[nH]c2ccccc2n1C1CCN(CCCC(c2ccc(F)cc2)c2ccc(F)cc2)CC1 [Pimozide],-3.39 ± 0.81,-2.08 ± 2.4,-4.9,-0.0109,-5.49,-6.06
Nc1[nH]cnc2ncnc1-2 [Adenine],-0.182 ± 0.44,0.321 ± 0.0093,0.166,-0.0462,0.102,1.05
CC(C)Cn1cnc2c(N)nc3ccccc3c21 [Imiquimod],0.659 ± 0.94,3.49 ± 2.8,0.887,1.43,1.08,1.15
COc1ccccc1N1CCN(CCCNc2cc(=O)n(C)c(=O)n2C)CC1 [Urapidil HCl],-0.37 ± 0.12,0.0782 ± 0.8,-0.451,-0.126,-0.815,-0.491
CC1C=CC=CCCC=CC=CC=CC=CC(OC2OC(C)C(O)C(N)C2O)CC2OC(O)(CC(O)C(O)CCC(O)CC(O)CC(O)CC(=O)OC(C)C(C)C1O)CC(O)C2C(=O)O (configuration not stated) [Nystatin (Mycostatin)],-0.489 ± 0.96,0.562 ± 1.4,0.181,-0.107,-0.658,0.415
NC[C@H]1O[C@H](O[C@H]2[C@H](O)[C@@H](O[C@H]3O[C@H](CO)[C@@H](O)[C@H](N)[C@H]3O)[C@H](N)C[C@@H]2N)[C@H](N)[C@@H](O)[C@@H]1O [Bekanamycin],0.261 ± 0.13,0.864 ± 2,-0.461,0.554,-1.5,0.551
CCNC(=O)CCC/C=C\C[C@@H]1[C@@H](/C=C/[C@@H](O)CCc2ccccc2)[C@H](O)C[C@@H]1O [Bimatoprost],0.795 ± 1.7,0.53 ± 0.59,-0.771,0.116,0.58,-0.101
O=C(O)CCCN1CCC(O[C@@H](c2ccc(Cl)cc2)c2ccccn2)CC1 [Bepotastine Besilate],0.0852 ± 0.52,0.775 ± 0.55,0.908,1.64,0.0558,-1.93
CCOC(=O)c1c(C)n(C)c2ccc(O)cc12 [Mecarbinate],1.23 ± 0.57,0.434 ± 0.37,-0.303,-0.0563,0.236,1.09
CNCC(O)c1ccc(O)c(O)c1 (racemic) [DL-Adrenaline],-0.699 ± 0.25,-1.4 ± 2,-1.47,-0.365,-0.623,-0.403
COC(=O)N[C@H](C(=O)N[C@@H](Cc1ccccc1)[C@@H](O)CN(Cc1ccc(-c2ccccn2)cc1)NC(=O)[C@@H](NC(=O)OC)C(C)(C)C)C(C)(C)C [Atazanavir sulfate],0.041 ± 0.91,-0.565 ± 0.21,-1.51,-1.72,-0.973,0.731
